Experiment [1] addresses endogenous p300 (mouse (endogenous in rela−/− fibroblasts)) (UniProt B2RWS6). Description: co-IP; nuclear extracts of RelA(wt/mutants) reconstituted rela−/− cells, unstimulated or stimulated with TNFα (5 ng/ml; 15, 30, 45 min); anti-CBP, anti-p300 or anti-RelA antibody, protein-G beads; immunoblot for RelA or CBP.
In experiment [2] the target is endogenous CBP (CREB-binding protein) (mouse (endogenous in rela−/− fibroblasts)) (UniProt P45481). The experiment is described as above.
For experiment [3], the target named is T1, GB1-tagged RelA–TA2 fragment 425–508 (F473A) (mouse) (UniProt Q04207).
T1 sequence: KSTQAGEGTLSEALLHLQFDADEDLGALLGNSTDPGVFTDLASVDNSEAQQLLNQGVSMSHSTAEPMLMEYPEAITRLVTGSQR
Description: condition: 10 to 18 µM of RelA–TA2 peptide in the cell and 169 to 185 µM TAZ1 in the syringe; ITC; TAZ1 (169 to 185 µM) in the syringe, GB1-tagged RelA–TA2 peptide (10 to 18 µM) in the cell; 25°C; 20 mM Tris pH 8.0, 150 mM NaCl, 1 mM DTT; single-binding site model; both purified.

Chains of the proteins cited; added tags and fusions are not shown. Lines headed by an entry give the natural chain unless they say otherwise; changes in a name come on top. Residues count along the entry.
UniProt B2RWS6: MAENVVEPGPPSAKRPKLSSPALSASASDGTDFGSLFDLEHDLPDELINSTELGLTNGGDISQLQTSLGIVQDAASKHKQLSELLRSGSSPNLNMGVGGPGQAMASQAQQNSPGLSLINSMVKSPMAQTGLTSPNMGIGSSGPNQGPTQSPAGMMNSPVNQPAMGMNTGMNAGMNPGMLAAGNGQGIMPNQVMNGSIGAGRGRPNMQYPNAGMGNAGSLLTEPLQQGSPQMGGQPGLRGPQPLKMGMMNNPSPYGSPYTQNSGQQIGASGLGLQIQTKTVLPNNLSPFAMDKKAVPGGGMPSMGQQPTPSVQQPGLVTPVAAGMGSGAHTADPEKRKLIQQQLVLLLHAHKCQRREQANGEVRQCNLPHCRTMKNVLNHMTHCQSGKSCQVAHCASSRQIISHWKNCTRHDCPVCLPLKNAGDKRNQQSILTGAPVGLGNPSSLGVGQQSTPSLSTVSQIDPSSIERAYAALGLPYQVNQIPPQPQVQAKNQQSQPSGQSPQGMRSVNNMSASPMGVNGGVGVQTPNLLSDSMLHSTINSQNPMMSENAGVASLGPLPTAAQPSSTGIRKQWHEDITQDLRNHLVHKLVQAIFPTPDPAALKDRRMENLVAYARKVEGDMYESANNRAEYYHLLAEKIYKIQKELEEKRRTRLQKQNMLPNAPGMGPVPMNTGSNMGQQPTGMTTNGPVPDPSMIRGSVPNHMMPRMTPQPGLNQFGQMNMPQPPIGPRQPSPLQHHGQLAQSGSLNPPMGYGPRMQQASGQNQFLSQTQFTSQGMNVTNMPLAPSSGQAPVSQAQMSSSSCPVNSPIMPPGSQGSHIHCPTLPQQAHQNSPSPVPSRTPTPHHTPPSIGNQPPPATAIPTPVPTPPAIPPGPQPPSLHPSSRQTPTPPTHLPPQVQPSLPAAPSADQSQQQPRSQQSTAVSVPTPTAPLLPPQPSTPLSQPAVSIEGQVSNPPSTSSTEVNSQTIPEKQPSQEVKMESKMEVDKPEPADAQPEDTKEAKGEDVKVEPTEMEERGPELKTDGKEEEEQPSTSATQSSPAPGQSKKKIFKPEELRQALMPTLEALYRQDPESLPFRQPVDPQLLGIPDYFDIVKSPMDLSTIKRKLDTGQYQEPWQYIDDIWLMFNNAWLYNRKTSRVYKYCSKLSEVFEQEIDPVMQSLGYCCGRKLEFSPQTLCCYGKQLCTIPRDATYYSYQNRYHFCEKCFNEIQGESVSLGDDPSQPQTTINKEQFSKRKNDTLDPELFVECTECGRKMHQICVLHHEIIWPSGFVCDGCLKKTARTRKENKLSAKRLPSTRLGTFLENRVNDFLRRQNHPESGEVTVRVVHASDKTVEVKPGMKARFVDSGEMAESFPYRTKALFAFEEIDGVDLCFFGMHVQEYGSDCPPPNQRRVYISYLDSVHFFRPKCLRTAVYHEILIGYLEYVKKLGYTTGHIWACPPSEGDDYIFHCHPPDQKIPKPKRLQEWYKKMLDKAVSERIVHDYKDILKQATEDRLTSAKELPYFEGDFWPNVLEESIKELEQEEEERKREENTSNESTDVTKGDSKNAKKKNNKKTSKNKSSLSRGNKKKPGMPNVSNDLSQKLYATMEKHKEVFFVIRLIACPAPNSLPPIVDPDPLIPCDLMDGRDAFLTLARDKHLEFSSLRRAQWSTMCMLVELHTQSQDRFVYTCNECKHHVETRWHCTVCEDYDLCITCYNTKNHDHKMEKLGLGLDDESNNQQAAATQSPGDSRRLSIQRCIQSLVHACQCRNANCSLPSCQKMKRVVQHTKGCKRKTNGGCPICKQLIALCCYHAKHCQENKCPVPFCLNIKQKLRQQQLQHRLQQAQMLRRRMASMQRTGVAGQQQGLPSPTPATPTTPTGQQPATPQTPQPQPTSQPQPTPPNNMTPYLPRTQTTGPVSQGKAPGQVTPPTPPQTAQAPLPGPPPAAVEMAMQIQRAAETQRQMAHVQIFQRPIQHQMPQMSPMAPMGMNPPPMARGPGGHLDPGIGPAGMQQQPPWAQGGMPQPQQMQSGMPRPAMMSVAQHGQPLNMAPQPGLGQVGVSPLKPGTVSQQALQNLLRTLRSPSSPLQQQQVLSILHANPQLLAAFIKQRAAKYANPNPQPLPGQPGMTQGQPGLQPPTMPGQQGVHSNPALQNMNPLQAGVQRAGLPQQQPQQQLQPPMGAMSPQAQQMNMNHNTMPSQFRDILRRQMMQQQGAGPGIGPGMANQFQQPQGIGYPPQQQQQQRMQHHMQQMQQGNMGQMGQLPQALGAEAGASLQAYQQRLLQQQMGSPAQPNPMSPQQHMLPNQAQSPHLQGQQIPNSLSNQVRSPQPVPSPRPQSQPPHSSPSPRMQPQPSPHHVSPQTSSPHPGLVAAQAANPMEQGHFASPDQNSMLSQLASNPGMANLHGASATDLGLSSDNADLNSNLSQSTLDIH
UniProt P45481: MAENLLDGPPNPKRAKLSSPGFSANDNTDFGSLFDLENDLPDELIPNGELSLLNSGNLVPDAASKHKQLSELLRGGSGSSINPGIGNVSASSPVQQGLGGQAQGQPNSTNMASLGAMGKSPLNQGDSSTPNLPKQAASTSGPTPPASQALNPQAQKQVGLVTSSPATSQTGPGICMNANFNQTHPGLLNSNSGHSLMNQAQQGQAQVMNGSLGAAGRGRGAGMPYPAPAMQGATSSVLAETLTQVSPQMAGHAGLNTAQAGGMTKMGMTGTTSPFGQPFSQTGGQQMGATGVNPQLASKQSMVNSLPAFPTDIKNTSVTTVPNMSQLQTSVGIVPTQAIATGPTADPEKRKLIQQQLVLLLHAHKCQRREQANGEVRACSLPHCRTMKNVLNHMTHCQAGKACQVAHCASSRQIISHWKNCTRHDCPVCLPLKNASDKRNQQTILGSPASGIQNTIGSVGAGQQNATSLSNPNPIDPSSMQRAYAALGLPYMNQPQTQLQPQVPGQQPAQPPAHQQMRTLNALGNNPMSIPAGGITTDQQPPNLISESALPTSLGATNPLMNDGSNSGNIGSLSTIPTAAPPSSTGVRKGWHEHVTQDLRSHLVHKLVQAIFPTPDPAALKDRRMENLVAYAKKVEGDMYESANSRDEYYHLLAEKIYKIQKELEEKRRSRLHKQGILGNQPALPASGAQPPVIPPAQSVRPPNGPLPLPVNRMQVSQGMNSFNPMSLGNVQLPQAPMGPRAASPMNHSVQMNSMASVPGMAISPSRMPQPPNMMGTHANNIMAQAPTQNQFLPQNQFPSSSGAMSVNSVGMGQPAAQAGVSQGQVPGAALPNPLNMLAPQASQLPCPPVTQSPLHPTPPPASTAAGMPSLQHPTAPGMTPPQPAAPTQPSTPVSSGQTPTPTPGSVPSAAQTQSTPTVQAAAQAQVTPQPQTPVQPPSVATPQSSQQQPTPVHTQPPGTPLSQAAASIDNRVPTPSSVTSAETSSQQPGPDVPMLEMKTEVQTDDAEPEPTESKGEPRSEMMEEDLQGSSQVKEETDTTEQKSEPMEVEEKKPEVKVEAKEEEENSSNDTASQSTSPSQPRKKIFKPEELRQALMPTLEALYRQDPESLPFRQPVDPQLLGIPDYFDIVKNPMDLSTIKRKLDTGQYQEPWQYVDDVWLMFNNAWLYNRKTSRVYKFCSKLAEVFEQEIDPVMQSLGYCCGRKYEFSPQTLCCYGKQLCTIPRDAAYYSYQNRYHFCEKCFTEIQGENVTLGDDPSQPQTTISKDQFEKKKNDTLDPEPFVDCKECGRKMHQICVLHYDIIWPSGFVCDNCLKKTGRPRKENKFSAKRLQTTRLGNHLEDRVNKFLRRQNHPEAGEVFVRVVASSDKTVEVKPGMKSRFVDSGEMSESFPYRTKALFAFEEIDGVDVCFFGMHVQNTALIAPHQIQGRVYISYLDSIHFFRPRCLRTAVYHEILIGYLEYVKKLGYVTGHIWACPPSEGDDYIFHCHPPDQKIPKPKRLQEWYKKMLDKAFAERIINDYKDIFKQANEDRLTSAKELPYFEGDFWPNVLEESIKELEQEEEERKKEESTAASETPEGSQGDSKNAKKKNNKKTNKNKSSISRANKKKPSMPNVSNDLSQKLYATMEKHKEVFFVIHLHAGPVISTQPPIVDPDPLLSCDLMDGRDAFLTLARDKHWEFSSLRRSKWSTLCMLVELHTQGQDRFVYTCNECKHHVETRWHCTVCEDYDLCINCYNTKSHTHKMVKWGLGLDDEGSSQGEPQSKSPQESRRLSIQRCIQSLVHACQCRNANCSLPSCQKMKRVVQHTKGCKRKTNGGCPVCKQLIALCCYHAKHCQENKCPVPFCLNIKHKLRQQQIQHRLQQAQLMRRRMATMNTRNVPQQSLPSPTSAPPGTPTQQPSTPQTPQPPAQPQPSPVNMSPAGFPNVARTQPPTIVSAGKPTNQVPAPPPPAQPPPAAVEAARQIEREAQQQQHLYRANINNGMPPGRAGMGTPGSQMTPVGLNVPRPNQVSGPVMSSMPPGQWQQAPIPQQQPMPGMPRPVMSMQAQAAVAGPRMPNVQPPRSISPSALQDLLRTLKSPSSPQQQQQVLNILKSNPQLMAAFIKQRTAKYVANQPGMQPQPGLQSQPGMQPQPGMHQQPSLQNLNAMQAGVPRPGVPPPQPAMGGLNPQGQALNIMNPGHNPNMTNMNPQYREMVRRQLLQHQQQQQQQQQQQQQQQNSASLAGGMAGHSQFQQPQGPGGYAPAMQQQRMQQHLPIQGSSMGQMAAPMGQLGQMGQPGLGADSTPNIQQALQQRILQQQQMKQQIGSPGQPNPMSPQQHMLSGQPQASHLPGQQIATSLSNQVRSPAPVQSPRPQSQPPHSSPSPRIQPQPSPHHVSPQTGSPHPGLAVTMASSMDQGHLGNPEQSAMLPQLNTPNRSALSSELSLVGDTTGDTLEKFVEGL
GST–KIX: residues 586-665 of P45481

The target in experiment [4] is T2, GST-RelA fragment (Lys425–Pro490) Phe473Ala (mouse) (UniProt Q04207).
T2 sequence: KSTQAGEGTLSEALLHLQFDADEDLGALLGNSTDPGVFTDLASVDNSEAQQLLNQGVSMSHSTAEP
Description: pull-down; GST-RelA fragments (20 µg) on glutathione sepharose beads with purified TAZ1 (10 µg); 20 mM Tris pH 7.5, 150 mM NaCl, 0.5 mM DTT; 4°C, 30 min; washes with 0.3% TritonX-100; SDS-PAGE; both purified.

Experiment [5] has as its target T3, GST-RelA(477–504) (mouse) (UniProt Q04207).
T3 sequence: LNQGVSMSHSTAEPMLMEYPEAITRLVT
The experiment is described as above.

Another experiment concerns the target GST–KIX (mouse) (UniProt P45481). Description: pull-down; in vitro purified GST–KIX or GST–TAZ1 used to pull down nRelA from nuclear extracts of wild-type 3T3 cells or of RelA(wt/mutants) reconstituted rela−/− cells stimulated with TNFα for 30 min; RelA immunoblot; only the target purified.

These are yes or no findings as the source states them, for the method shown. For some assays here: Binding seen in cells or lysates may run through a third protein. Some binding calls cover weakened binding; strength is not graded here. For some assays here: Tags and fused reporters may be left off the sequences shown.

“RelA(Leu449Ala+Phe473Ala), full length, in reconstituted rela−/− cells (from UniProt Q04207 1-549)”: the binding entry in experiment [1] and in experiment [2] was “binds” throughout.
Take “RelA(Leu449Ala+Phe473Ala+Ser467Ala), full length, in reconstituted rela−/− cells (from UniProt Q04207 1-549)”: the binding entry in experiment [2] is on record as “binds”.
Consider “RelA(Ser276Ala), full length, in reconstituted rela−/− cells (from UniProt Q04207 1-549)”, for which the binding entry in experiment [1] and in experiment [2] was “binds” each time.
As for “RelA(Ser467Ala), in reconstituted rela−/− cells (from UniProt Q04207 1-549)”, the binding result in experiment [1] and in experiment [2] was “binds” throughout.
For the substance “TAZ1 domain of mouse CBP (residues 340–439) (from UniProt P45481 340-439) (domain or fragment)”, the binding entry is listed as “no binding” in experiment [3], “no binding” in experiment [4] and “binds weakly” in experiment [5].
With “nuclear-RelA (nRelA) of wild-type 3T3 cells (from UniProt Q04207 1-549)”, in the experiment with GST–KIX (mouse), the binding result is “binds”.

For the origin of these results see publication PMC3760798.
